# Data from the supplement of paper PMC9446081.
# About 220 (0.56%) of roughly 39,000 compounds showed activity. This is one part of the list.
# Tested on: Escherichia coli K-12 BW25113
# Experiment: relative growth (OD600 normalised to plate interquartile mean) (fraction); higher = less growth inhibition, active = 0.2 or less
# Details: 50 µM; LB; incubation time: overnight (16-24 h)
# 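Also: static incubation at 37 °C against the wild-type strain, values averaged over two biological replicates.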
row,SMILES,relative growth
1,COC(=O)c1ccc(=O)oc1,inactive: 0.993
2,C[C@H]1CCCCO[C@@H](CN(C)C(=O)C2CCCCC2)[C@@H](C)CN([C@@H](C)CO)C(=O)c2cc(NC(=O)Nc3ccccc3)ccc2O1,inactive: 1.01
3,Cc1noc(C)c1S(=O)(=O)Nc1ccc2c(c1)C(=O)N([C@@H](C)CO)C[C@@H](C)[C@@H](CN(C)Cc1ccccc1)OCCCC[C@@H](C)O2,inactive: 1.02
4,COc1ccc(NC(=O)Nc2ccc3c(c2)C(=O)N([C@H](C)CO)C[C@@H](C)[C@H](CN(C)C(=O)C2CCCCC2)OCCCC[C@@H](C)O3)cc1,inactive: 0.943
5,C[C@@H]1CCCCO[C@@H](CN(C)C(=O)CCC(F)(F)F)[C@@H](C)CN([C@H](C)CO)C(=O)c2cc(NC(=O)c3ccccc3)ccc2O1,inactive: 0.982
6,C[C@@H]1CN([C@H](C)CO)S(=O)(=O)c2ccc(C#Cc3ccccc3)cc2O[C@H]1CN(C)S(=O)(=O)c1cn(C)cn1,inactive: 1.03
7,C[C@@]1(O)CCOC(=O)C1,inactive: 0.997
8,C[C@H]1CN([C@@H](C)CO)C(=O)c2c(c3ccccc3n2C)-c2ccccc2CO[C@@H]1CN(C)C(=O)Nc1ccccc1C(F)(F)F,inactive: 0.983
9,Cc1ccc(S(=O)(=O)Nc2ccc3c(c2)C(=O)N([C@H](C)CO)C[C@@H](C)[C@@H](CN(C)Cc2ccncc2)OCCCC[C@H](C)O3)cc1,inactive: 1.01
10,CO[C@H](C(=O)N(C)C[C@@H]1OCc2ccccc2-c2c(n(C)c3ccccc23)C(=O)N([C@@H](C)CO)C[C@H]1C)c1ccccc1,inactive: 1.02
11,C[C@@H]1CN([C@H](C)CO)C(=O)c2cc(NC(=O)Cc3cn(C)c4ccccc34)ccc2O[C@@H]1CN(C)Cc1ccc(-c2ccccc2)cc1,inactive: 1
12,C[C@@H]1CN([C@H](C)CO)C(=O)c2cc(NC(=O)Cc3ccccc3)ccc2O[C@H]1CN(C)C(=O)Nc1ccc(C(F)(F)F)cc1,inactive: 1.03
13,C[C@H](CO)N1C[C@H](C)[C@@H](CN(C)S(=O)(=O)c2cccs2)Oc2c(NS(=O)(=O)c3cccs3)cccc2C1=O,inactive: 0.925
14,O=C(N[C@H]1CC[C@@H](CCn2cc(C3(O)CCCC3)nn2)O[C@H]1CO)C1CCOCC1,inactive: 0.951
15,C[C@@H]1CN([C@H](C)CO)C(=O)c2cc(NC(=O)CCC(F)(F)F)ccc2O[C@@H](C)CCCCO[C@H]1CN(C)C(=O)Nc1ccc2c(c1)OCO2,inactive: 1
16,COc1ccc(NC(=O)Nc2ccc3c(c2)C(=O)N([C@H](C)CO)C[C@@H](C)[C@@H](CN(C)Cc2ccc(C(=O)O)cc2)OCCCC[C@@H](C)O3)cc1,inactive: 0.987
17,NC(=O)c1cc2ccccc2nc1C(N)=O,inactive: 0.979
18,C[C@H]1O[C@@H](n2cc(F)c(=O)[nH]c2=O)[C@H](O)[C@@H]1O,inactive: 0.667
19,C[C@H]1CCCCO[C@H](CN(C)C(=O)Nc2cccc3ccccc23)[C@@H](C)CN([C@@H](C)CO)C(=O)c2cc(NS(=O)(=O)c3ccc(F)cc3)ccc2O1,inactive: 1.03

row,SMILES,relative growth
1,Cc1noc(C)c1S(=O)(=O)Nc1ccc2c(c1)C(=O)N([C@@H](C)CO)C[C@@H](C)[C@@H](CN(C)S(=O)(=O)c1ccccc1)O2,inactive: 1.01
2,Nc1ncnc2c1ncn2[C@@H]1O[C@H](COP(=O)(O)O)[C@@H](O)[C@H]1O,inactive: 1.13
3,C[C@@H]1CCCCO[C@@H](CN(C)Cc2ccc(Cl)c(Cl)c2)[C@@H](C)CN([C@H](C)CO)C(=O)c2cc(NC(=O)CCCN(C)C)ccc2O1,inactive: 0.924
4,c1ccc2cc3nc4c(ccc5ccccc54)nc3cc2c1,inactive: 1.04
5,COc1cc(C)ccc1S(=O)(=O)N1[C@@H]2CC[C@@H](C2)[C@H]1c1nc2cccc(OCc3ccccc3)c2[nH]1,inactive: 1.02
6,COc1ccc(S(=O)(=O)N(C)C[C@@H]2Oc3ccc(NC(=O)CCC(F)(F)F)cc3CC(=O)N([C@@H](C)CO)C[C@@H]2C)cc1,inactive: 1.01
7,C[C@H]1CN([C@@H](C)CO)C(=O)c2cccc(NC(=O)CCCCCC(=O)Nc3ccccc3N)c2O[C@H]1CN(C)Cc1ccc(Cl)c(Cl)c1,inactive: 0.99
8,Cc1noc(C)c1NC(=O)N(C)C[C@H]1Oc2ccc(NC(=O)Cn3cnnn3)cc2CC(=O)N([C@H](C)CO)C[C@@H]1C,inactive: 1
9,CO[C@@H](CN(C)S(=O)(=O)c1cccc(Cl)c1)[C@@H](C)CN([C@H](C)CO)S(=O)(=O)c1cccc(Cl)c1,inactive: 1.02
10,COc1ccc(S(=O)(=O)N(C)C[C@@H]2Oc3ccc(NS(=O)(=O)c4ccc(C)cc4)cc3CC(=O)N([C@H](C)CO)C[C@@H]2C)cc1,inactive: 1.02
11,C[C@H]1CN([C@@H](C)CO)C(=O)Cc2cc(NC(=O)CCN3CCOCC3)ccc2O[C@@H]1CN(C)S(C)(=O)=O,inactive: 1.04
12,CO[C@@H](CN(C)C(=O)c1ccccc1F)[C@H](C)CN([C@@H](C)CO)S(=O)(=O)c1ccc(Cl)cc1,inactive: 0.982
13,O=C(O)/C=C\C(=O)NCc1cccnc1,inactive: 0.99
14,O=C(C[C@@H]1C[C@@H]2c3cc(NC(=O)Nc4ccc(C(F)(F)F)cc4)ccc3O[C@@H]2[C@@H](CO)O1)NC1CCCCC1,inactive: 1.02
15,COCCN1C[C@@H]2CN(C(=O)[C@H]3CCCO3)C[C@H]2C1=O,inactive: 0.971
16,C[C@H]1CN([C@@H](C)CO)C(=O)Cc2cc(NC(=O)C3CC3)ccc2O[C@H]1CN(C)Cc1ccc(C(=O)O)cc1,inactive: 0.99
17,O=C1O[C@@H](c2ccccc2)[C@@H](c2ccccc2)N2[C@@H](c3ccc(O)cc3)[C@]3(C(=O)Nc4ccccc43)[C@@H](C(=O)N3CCCCCCC3)[C@H]12,inactive: 1.01
18,C[C@H](CO)N1C[C@H](C)[C@H](CN(C)S(=O)(=O)c2ccc(F)cc2)OCCCC[C@H](C)Oc2ccc(NS(=O)(=O)c3cn(C)cn3)cc2C1=O,inactive: 1.01
19,C[C@H]1CN(C(=O)CSc2nnc3c4ccccc4n(Cc4cccc(Cl)c4)c3n2)CCN1C(=O)c1ccccc1F,inactive: 1.03
